# Test results published in ChEMBL document CHEMBL4888484, “Replenishing the malaria drug discovery pipeline: Screening and hit evaluation of the MMV Hit Generation Library 1 (HGL1) against asexual blood stage Plasmodium falciparum ,using a nano luciferase reporter read-out” (2022).
# Screen size: about 150,000 compounds; about 540 (0.36%) showed an effect of 50% or more. Some of the results follow.
# Test system: Plasmodium falciparum
# Assay: Primary screen in NF54 nanoGlo assay, in single point, at 2uM, 72h; a lower Z score goes with more inhibition
# Type: functional, Erythrocyte
# Conditions: timepoint 72 hour
SMILES,% Inhibition [%],Z score
Cc1c(N[C@@H](C(N)=O)c2ccccc2)c(=O)n(-c2ccccc2)n1C,0,-0.01
Cc1c(C(C)C)c(=O)n(-c2ccc(S(=O)(=O)N3CC(=O)Nc4ccccc43)cc2)n1C,29,-3.96
COc1nc2c(cc1CNC1CCN(C)CC1)C(=O)N(C1CCCC1)C2,-10,1.2
Cc1ccc(C(=O)N2CCC(CC(=O)NCCCN3CCN(C4CCCCC4)CC3)CC2)cc1,0,-0.03
O=C(Cn1cc(N[C@H]2CCc3ccccc32)cn1)NCCO,-21,3.93
C[C@@H](C(=O)O)n1cc(-c2cc(-c3ccco3)c(C#N)c(N)n2)c2ccccc21,-7,1.12
Cc1cc(NC(=O)[C@H](C)OC(=O)c2[nH]c3ccc(Cl)cc3c2Cl)on1,-1,0.09
Cc1c(C(=O)N2CCC[C@H](n3ccnn3)C2)cnn1C,0,0.04
COc1cc(CN2CC[C@H](NC(=O)c3n[nH]nc3C)C2)cc(OC)c1,-8,0.64
Cc1ccc(C2CCN(S(=O)(=O)c3ccc(C)o3)CC2)cn1,-7,0.72
Cc1ccc(C(=O)Nc2c(C)nc(N3CCOCC3)nc2C)cc1C,13,-2.05
C[C@H]1CCCCN1C(=O)COCC(F)(F)F,-4,0.4
Cc1nc(NC[C@@H]2N(C)CCCC2(C)C)cc(-c2cccnc2)n1,-3,0.63
Cc1cnc([C@@H](NS(=O)(=O)c2cnnn2C)C2CC2)s1,-10,1.45
COc1cccc2c1CC[C@H](NCc1ccccc1S(C)(=O)=O)C2,-5,0.62
Cc1ccc(C(=O)NCCN(CCN2CCOCC2)C(=O)c2ccc(C)s2)s1,-2,0.29
Cn1c(=O)[nH]c(=O)c2cc(S(=O)(=O)Nc3ccc(C(C)(C)C)nn3)cnc21,-13,2.44
Cn1ccc2c(-c3nccc(N4CCC[C@H](O)C4)n3)ccnc21,0,-0.01
Fc1cccc(Oc2nc(N3CCCCC3)nc3c2CN(Cc2ccccn2)CC3)c1,5,-0.73
CCOC(=O)c1n[nH]c2c1C(C)CCC2C(C)C (configuration not stated),-8,0.96
CCOC(=O)[C@H]1CCCN(C(=O)c2cc(-c3ccccc3OC)n3nc(-c4ccccc4)cc3n2)C1,-2,0.27

SMILES,% Inhibition [%],Z score
Cc1c(C(=O)N2CCN(c3ccsc3C#N)CC2)ccc2cncn12,-8,1.18
O=S(=O)(N[C@H]1CO[C@@H](CN2CCOCC2)[C@@H]1O)c1cccs1,-8,1.14
CCCN(C)[C@@H](C)c1nnc(-c2cccs2)o1,-10,1.54
CC(=O)Nc1ccc(NC(=O)CNC(C)(C)C)cc1,-2,0.38
Cc1ccc(-c2nc(-c3ccc4c(c3)[nH]c(=O)n4C3CCCC3)no2)cc1NC(=O)c1ccco1,1,-0.08
CC(=O)NCCn1cnc(-c2ccccc2)c1-c1nc2ccccc2n1C,-10,1.96
CCc1ccc(CN2CC[C@H]3CN(C(C)=O)C[C@@]3(CO)C2)cc1,-4,0.56
Cn1nc(C2CCCCC2)cc1NCc1cnc(C(C)(C)C)nc1,-13,1.4
Cc1nn2c(=O)c3ccccc3nc2n(N)c1=O,-9,1.24
Cc1cc(C)c2[nH]c(C(=O)NC[C@H]3CC(Cc4ccc(F)cc4)=NO3)c(C)c2c1,-2,0.42
COc1ccc(-c2nn(-c3ccccc3F)cc2CN[C@@H](C)c2nc(C)sc2C)cc1,-11,1.62
COC[C@H](C)CS(=O)(=O)N1CCC(c2ccc(Cl)cn2)CC1,-4,0.72
Cc1ccc(CC(=O)Nc2cccc(N(C)C(=O)Cc3ccc(C)o3)c2)o1,1,-0.14
CC(C)n1nccc1CNc1ccc(C(N)=O)c(Cl)c1,-13,1.77
CC(C)CC1(CNC(=O)[C@@H](N)[C@@H](C)O)CCC1,-6,0.55
O=C(Nc1ccc(Cl)c(Cl)c1)c1[nH]nnc1-c1cccc(Cl)c1,2,-0.33
CC(=O)Nc1ccc(NC(=O)c2cc(CN3CCCC3)on2)cc1,-19,1.87
O=S(=O)(Nc1ccccc1)c1cc(S(=O)(=O)c2ccc(Cl)c(S(=O)(=O)Nc3ccccc3)c2)ccc1Cl,-7,1.39
CC1CC(NC(=O)NC2CN(Cc3ccccc3)CC2C)CC(C)O1 (configuration not stated),-15,1.57
CCn1ccc(C(=O)Nc2ccc(C(=O)NC3CCCCC3)cc2)n1,-7,0.84
COc1ccc(-c2cccnc2O)cn1,-14,1.35

SMILES,% Inhibition [%],Z score
Cc1noc(C)c1CCC(=O)NCC1CCN(C(=O)N(C)C)CC1,-7,0.76
O=C(Cn1cncn1)NCc1cnn2c1CCCC2,10,-1.62
CCc1nn(-c2ccc(OC)cc2)c(Oc2ccc(F)cc2F)c1CN(C[C@H]1CCCO1)S(=O)(=O)c1ccc(OC)cc1,-13,2.45
O=S(=O)(NCc1ccnc(N2CCN(c3ccc(F)cc3)CC2)c1)c1cccnc1,-7,0.96
CN(Cc1cnccn1)C(=O)C[C@@H](c1cccc(O)c1)c1ccccc1Cl,6,-1.23
COc1ccc(S(=O)(=O)Oc2ccccc2CN(CC(C)C)C(=O)c2ccccc2Cl)cc1,19,-2.74
O=C(NCC1=CCCCC1)c1[nH]nc2c1CCC2,-1,0.17
CCN1C[C@@H](C(=O)N2CCc3sc(C(=O)NC)cc3C2)CCC1=O,-11,2.26
O=C(NS(=O)(=O)C1COC1)c1cccs1,7,-1.11
Cc1cccc(CC(=O)N2CC[C@@H](n3c(=O)[nH]c4cccnc43)C2)c1,4,-0.56
COc1ccc(CCC(=O)N2CC[C@H](CCc3noc(C)n3)C2)cc1,0,0.04
O=C(NCCc1ccc(-c2ccsc2)s1)N1CCNC1=O,-10,1.96
Cn1cc(Br)cc1C(=O)N1CC(O)(C2CC2)C1,35,-4.75
CC(=O)N1CCCN(C[C@@H]2OC[C@H](NC(=O)c3ccc(F)c(Cl)c3)[C@H]2O)CC1,-18,3.43
NC(=O)c1cc([C@@H]2CCCCN2C(=O)c2cc(-c3ccccc3)on2)n[nH]1,20,-2.64
CC1(C)Cc2ccc(C(=O)NC(C)(C)c3ncccn3)cc2O1,0,0.07
Cc1nc2c(NCCC(=O)Nc3nccs3)ncnc2o1,4,-0.52
CCn1cc(CN2CCn3nc(CN4C[C@@H]5C[C@H]4CN5C)cc3C2)cc1C#N,14,-1.81
Cc1cc(CN2CCC(Oc3ccc4ccccc4c3)(C(=O)O)CC2)ccc1O,-14,1.8
N#Cc1c(N)nc(N2CCOCC2)c(C#N)c1-c1ccccc1,2,-0.2
O=C(c1ccco1)N1CCN(c2nnc3ccc(C(F)(F)F)cn23)CC1,25,-2.81

SMILES,% Inhibition [%],Z score
COc1cc(NC(=O)[C@H](C)NC(=O)C2CC(=O)N(c3ccccc3)C2)cc(OC)c1OC (some centres not stated),-6,0.81
O=C(c1n[nH]c2ccccc12)N1C[C@H](c2nnc(-c3ccncc3)o2)C2(CCOCC2)C1,-10,1.81
Cc1ccc(S(=O)(=O)NC(=N)NCc2ccccc2)cc1C,-15,1.43
O=C(Cn1nc2c(Oc3ccc(Cl)cc3)nccn2c1=O)NCc1ccc(F)cc1,-11,1.03
CC(C)c1nc2ccc(C(=O)NCCN3CCN(c4cccc(Cl)c4)CC3)cc2o1,-19,3.07
O=C(NCCc1csc(N2CCCC2)n1)c1cnc(C(F)(F)F)nc1,-5,0.54
Cc1ccc(CCNC(=O)c2ccc(-c3nc(CS(=O)(=O)c4ccc(C)cc4)c(C)o3)cc2)cc1,34,-4.98
O=C(Nc1nc2nc(-c3ccccc3)oc2c(=O)[nH]1)c1ccccc1,-14,1.83
O=C(O)c1ccc(N2CCCN(Cc3cccc(F)c3)C2=O)cc1,-10,1.29
Cc1cc(C)n(CCCc2nc(C(C)C)nn2-c2ccccn2)n1,0,-0.08
Cc1cc(C)n2nc3c(c2n1)[C@@H](c1ccc(N(C)C)cc1)CC(=O)N3,4,-0.4
CCC(=O)NC1CCC(Nc2nc([C@@H](C)CC)nc3c2cnn3-c2ccccc2Cl)CC1 (some centres not stated),-28,3.03
O=C(Nc1nc2ccccc2s1)[C@H](Cc1ccccc1)NC(=O)N1CCOCC1,-7,0.91
O=C(NCc1nc2ncccn2n1)N[C@H]1CCCC12CCCCC2,16,-2.06
CCn1cc(S(=O)(=O)N[C@H]2CCCN(CCOC)C2)cn1,6,-0.74
Cc1n[nH]nc1C(=O)NCc1csc(N)n1,-9,1.17
CCNc1nc(C)cc(Nc2ccc(NC(=O)c3cc(C)ccc3C)cc2)n1,97,-9.09
CCCc1nccn1CCO[C@@H]1CCCCO1,-13,1.49
